Results as given in PubChem BioAssay AID504333 (National Center for Advancing Translational Sciences (NCATS), 2011).
Where “and” joins values, the source holds several entries; their conditions need not be identical. Identical values can stand only once. Among all 360,000 compounds or so, about 16,000 (4.4%) were called active. Inconclusive results, whose numbers are uncertain, are shown with a selection of clear calls. Calls come from the whole dose curve; as a rule, active = well fitted inhibition curve with a large enough effect; inconclusive = small, poorly fitted or top-dose-only effect; inactive = no such curve, though single readings can be large or run the other way. Potencies beside an inconclusive call are fits to weak or partial responses and may not hold up.

Target: Bromodomain adjacent to zinc finger domain protein 2B (Homo sapiens) (UniProt Q9UIF8)
Test: qHTS Assay for Inhibitors of BAZ2B; note: nearly all actives have a fitted effect of over 60% in size
Conditions: AlphaScreen BAZ2B-H3K14Ac peptide displacement; series mostly up to 114 µM
How it was run: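 AlphaScreen displacement of biotin-H3(5-23)K14Ac peptide (50 nM final) from BAZ2B (50 nM final) in PBS pH 7.4, 0.01% Tween-20; complex preformed 30 min RT, then compounds (top 110 uM) 30 min RT, beads 20 min dark.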
Potency is the fitted concentration of half-maximal effect; tags give direction and shape of the fitted curve.

Chain of UniProt Q9UIF8 (Q9UIF8 whole entry, looked up, the tested form may be a part): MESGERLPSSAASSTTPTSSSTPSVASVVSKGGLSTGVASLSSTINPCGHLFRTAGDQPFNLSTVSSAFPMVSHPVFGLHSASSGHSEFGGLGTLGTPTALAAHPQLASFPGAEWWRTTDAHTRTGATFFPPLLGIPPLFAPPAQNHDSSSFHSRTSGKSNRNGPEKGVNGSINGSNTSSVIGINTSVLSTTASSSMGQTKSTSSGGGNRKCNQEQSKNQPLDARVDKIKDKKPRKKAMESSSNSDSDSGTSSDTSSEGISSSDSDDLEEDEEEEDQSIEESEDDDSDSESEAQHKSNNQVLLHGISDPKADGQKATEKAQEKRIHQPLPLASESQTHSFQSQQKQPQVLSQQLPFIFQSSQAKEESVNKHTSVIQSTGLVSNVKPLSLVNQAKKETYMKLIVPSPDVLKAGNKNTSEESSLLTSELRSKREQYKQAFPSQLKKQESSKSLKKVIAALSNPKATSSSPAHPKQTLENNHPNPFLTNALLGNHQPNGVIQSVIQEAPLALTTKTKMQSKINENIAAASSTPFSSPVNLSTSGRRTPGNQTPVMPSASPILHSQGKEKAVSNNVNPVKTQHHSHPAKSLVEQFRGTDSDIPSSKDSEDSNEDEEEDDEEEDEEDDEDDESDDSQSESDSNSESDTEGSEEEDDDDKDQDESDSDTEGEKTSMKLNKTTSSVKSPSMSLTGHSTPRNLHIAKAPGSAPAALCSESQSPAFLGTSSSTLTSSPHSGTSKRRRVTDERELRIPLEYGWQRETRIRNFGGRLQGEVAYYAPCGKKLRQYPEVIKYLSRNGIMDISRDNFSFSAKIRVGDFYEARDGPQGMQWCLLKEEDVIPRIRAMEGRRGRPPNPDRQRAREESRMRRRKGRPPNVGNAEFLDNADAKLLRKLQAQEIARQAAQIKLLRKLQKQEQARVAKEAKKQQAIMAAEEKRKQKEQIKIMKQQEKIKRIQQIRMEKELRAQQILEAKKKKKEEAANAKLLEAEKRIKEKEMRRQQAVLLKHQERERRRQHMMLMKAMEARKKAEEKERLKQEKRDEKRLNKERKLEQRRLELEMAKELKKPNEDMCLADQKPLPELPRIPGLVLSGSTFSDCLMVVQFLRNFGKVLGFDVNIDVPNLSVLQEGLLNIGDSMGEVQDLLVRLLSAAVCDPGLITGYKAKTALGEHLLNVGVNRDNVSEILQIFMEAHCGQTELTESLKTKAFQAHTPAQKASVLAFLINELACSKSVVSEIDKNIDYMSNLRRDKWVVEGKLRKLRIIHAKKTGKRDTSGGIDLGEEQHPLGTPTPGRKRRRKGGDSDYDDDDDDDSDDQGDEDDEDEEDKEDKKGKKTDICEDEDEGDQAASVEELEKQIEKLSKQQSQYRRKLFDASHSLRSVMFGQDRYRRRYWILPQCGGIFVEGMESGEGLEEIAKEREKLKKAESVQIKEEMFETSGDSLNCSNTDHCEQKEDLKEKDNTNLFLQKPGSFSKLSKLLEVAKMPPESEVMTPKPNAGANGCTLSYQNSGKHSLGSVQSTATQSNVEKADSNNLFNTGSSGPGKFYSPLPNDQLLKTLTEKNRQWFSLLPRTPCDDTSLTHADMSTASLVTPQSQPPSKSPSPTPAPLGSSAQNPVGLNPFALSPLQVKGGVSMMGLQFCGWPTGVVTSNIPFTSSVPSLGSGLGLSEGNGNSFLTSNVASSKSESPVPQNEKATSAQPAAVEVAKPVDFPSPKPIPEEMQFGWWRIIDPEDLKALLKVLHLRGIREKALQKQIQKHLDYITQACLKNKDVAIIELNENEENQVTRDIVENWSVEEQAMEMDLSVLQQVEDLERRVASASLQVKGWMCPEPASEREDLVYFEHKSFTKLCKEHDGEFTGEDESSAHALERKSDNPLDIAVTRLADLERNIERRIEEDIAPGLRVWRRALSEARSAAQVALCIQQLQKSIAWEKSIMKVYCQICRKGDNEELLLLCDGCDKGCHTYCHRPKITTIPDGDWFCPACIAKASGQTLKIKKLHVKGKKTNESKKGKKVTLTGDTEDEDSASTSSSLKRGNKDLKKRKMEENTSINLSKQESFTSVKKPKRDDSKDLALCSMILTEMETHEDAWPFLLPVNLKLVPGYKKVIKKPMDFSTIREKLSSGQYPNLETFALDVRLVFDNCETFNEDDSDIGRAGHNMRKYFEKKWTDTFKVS

Structure (SMILES)	Potency
CCN(CC)C(c1ccc(C)cc1)c1nnnn1C1CCCCC1 (stereo not drawn)	inactive
Oc1cccc(/C=N/Nc2cccc3cccnc23)c1	inconclusive: 35.5 µM [inhibitor, partial curve]
Cc1cccc(N2CCN(Cc3nnc(-c4ccccc4C)o3)CC2C)c1 (stereo not drawn)	inconclusive: 56.2 µM [inhibitor, partial curve]
CCc1ccc(-c2nn(-c3ccccc3)cc2C2SCC(=O)N2Cc2ccco2)cc1 (stereo not drawn)	inconclusive: 3.55 µM [inhibitor, full curve, poor fit]
CC(=O)c1cccc(NC(=S)NC(=O)Cc2ccccc2)c1	inconclusive: 79.4 µM [inhibitor, single point]
CCOC(=O)c1cc(-c2cccs2)nn1CCC#N	inconclusive: 89.1 µM [inhibitor, single point]
COc1ccc(-c2cn3cccnc3n2)cc1NC(=O)c1ccc(Br)o1	inconclusive: 50.1 µM [inhibitor, partial curve]
CCNc1c(C(=O)O)ccc2c1C(=O)c1ccccc1C2=O	active: 35.5 µM
Cc1ccc(-c2nnc(SCC(=O)N3CCOCC3)nc2-c2ccc(C)cc2)cc1	inconclusive: 44.7 µM [inhibitor, partial curve]
COc1ccc(Cn2c(C(=O)O)c(CNCc3ccco3)c3ccc(OC)cc32)cc1	inconclusive: 79.4 µM [inhibitor, single point]
O=c1cc(O)n(Cc2ccc(F)cc2)c(=O)[nH]1	inactive
Cc1cc(/C=N/NC(N)=O)c(C)n1C1CCCCC1	active: 50.1 µM
O=C(C1CCN(S(=O)(=O)c2ccccc2)CC1)N1CCCCCC1	inactive
COc1ccc2[nH]c(C)c(C(=O)CN3CCc4cc(OC)c(OC)cc4C3)c2c1	inactive
O=C1c2ccccc2C(=O)N1c1cccc(-c2csc(Nc3ccc4c(c3)OCO4)n2)c1	inconclusive: 89.1 µM [inhibitor, single point]
COc1ccc(-c2nc(NC(=O)c3[nH]c(C)c(C(C)=O)c3C)sc2C)cc1	inconclusive: 56.2 µM [inhibitor, partial curve]
Cc1cc2c(c(=O)n1-c1ccccc1)C1O[C@](c3ccsc3)(Cc3cc(C#N)ccc31)O2	inconclusive: 7.08 µM [inhibitor, partial curve]
O=[N+]([O-])c1c(NCCCO)cc(SCc2ccco2)c2nonc12	inconclusive: 79.4 µM [inhibitor, single point]
COc1cc(C(=S)N2CCCC2)ccc1O	inactive
Cc1nnc(SCC(=O)Nc2c(C)n(C)n(-c3ccccc3)c2=O)n1Cc1ccccc1	inactive
O=C(c1ccccc1Cl)N1CCNCC1	inconclusive: 10 µM [inhibitor, single point]
CC12CCC(C(=O)OC3CCCCC3)(OC1=O)C2(C)C (stereo not drawn)	inactive
CC1=Nn2c(nnc2-c2ccccn2)SC1	active: 50.1 µM
CCOCC(O)CNC(=O)c1ccc2nc(Cc3ccc(OC)c(OC)c3)oc2c1 (stereo not drawn)	inconclusive: 89.1 µM [inhibitor, single point]

Structure (SMILES)	Potency
Cc1cc(C)cc(NC(=O)Nc2ccc3nc(N4CCN(C)CC4)cc(C)c3c2)c1	inactive
CC(CNC(=O)CCc1cn(Cc2ccccc2Cl)c2ccccc12)c1ccccc1 (stereo not drawn)	inconclusive: 70.8 µM [inhibitor, single point]
C/C(=C\C(=O)c1ccccc1)Nc1cccc(O)c1	active: 50.1 µM
CCN1CCN(Cc2ccc(NC(=O)c3ccc(C)c(NC(=O)c4cc(-c5ccc(Br)cc5)n[nH]4)c3)cc2C(F)(F)F)CC1	inconclusive: 50.1 µM [inhibitor, partial curve]
O=C(Nc1ccc2c(c1)CCCN2C(=O)c1cccs1)c1ccccc1	inactive and inconclusive: 70.8 µM [inhibitor, single point]
Cc1cccc(-c2nc(CNC(=O)c3ccco3)cs2)c1	inactive
COc1ccccc1NC(=S)NCC1CCCCC1	inactive
C=CCn1c(N)c(C(=O)NCc2ccco2)sc1=S	inconclusive: 89.1 µM [inhibitor, single point]
CC1(C)CC(=O)c2cc(C(=O)Nc3ccccc3Cl)c(=O)n(-c3ccc(Cl)cc3)c2C1	inactive
CN(C)S(=O)(=O)c1cccc(NC(=O)COC(=O)COc2ccccc2[N+](=O)[O-])c1	inconclusive: 70.8 µM [inhibitor, partial curve]
Nc1cc(C(=O)OCC(=O)NCc2ccco2)ccc1Cl	inconclusive: 70.8 µM [inhibitor, single point]
COc1ccc(S(=O)(=O)N2CCCCC2)cc1NC(=O)Cc1sc(C)nc1-c1ccc(F)cc1	inactive
S=C(NCC1CCCO1)N1CCN(c2nc(-c3ccccc3)cs2)CC1 (stereo not drawn)	inconclusive: 39.8 µM [inhibitor, partial curve]
CN(C)c1ccc(C2C=C(c3ccc(Cl)cc3OC(F)F)Nc3ncnn32)cc1 (stereo not drawn)	inconclusive: 50.1 µM [inhibitor, partial curve]
CCOC(=O)c1ccccc1NC(=O)C1CSC2(C)CCC(=O)N12 (stereo not drawn)	inconclusive: 35.5 µM [inhibitor, partial curve]
CCN(CC)c1ccc(CNc2ccc3c(c2)ncn3CC)cc1	active: 15.8 µM
O=C(Cc1ccc(S(=O)(=O)N2CCOCC2)s1)Nc1ccccc1Br	active: 70.8 µM
CCOc1ccc(NC(=O)C(=O)NCc2ccco2)cc1	inactive
O=C(Nc1ccc(Cl)cn1)c1ccc(-c2cc(Cl)ccc2Cl)o1	inactive
COc1ccc(N2C(=O)CC(N(CCc3ccc(S(N)(=O)=O)cc3)C(=S)Nc3ccccc3)C2=O)cc1 (stereo not drawn)	inactive
COc1cccc(C(=O)NCC(c2ccc3c(c2)OCO3)N2CCOCC2)c1 (stereo not drawn)	inactive
CCCCN(C(=O)c1cc(-c2ccco2)nc2ccccc12)c1c(N)n(CCCC)c(=O)[nH]c1=O	inconclusive: 79.4 µM [inhibitor, single point]
Cc1nn(-c2ccccc2)c(C)c1/C=N/N1CCN(c2ccccn2)CC1	active: 44.7 µM
C/C(=N\Nc1ncc(Cl)cc1Cl)c1ccc(S(=O)(=O)NCc2ccco2)cc1	inconclusive: 70.8 µM [inhibitor, single point]
